From PubChem BioAssay AID493208 (National Center for Advancing Translational Sciences (NCATS), 2011)
Hit rate of the full screen: of about 44,000 compounds, about 340 (0.77%) were called active. The shares of active, inactive and inconclusive entries below differ from those in the screen. The call rests on the fitted dose curve; in most records, active means well fitted inhibition curve with a large enough effect; inconclusive means small, poorly fitted or top-dose-only effect; inactive means flat fitted curve, though single readings scatter. Potencies of inconclusive entries are left out as doubtful fits.

experiment: Acumen qHTS Assay for Inhibitors of the mTORC1 Signaling Pathway in MEF (Tsc2-/-, p53-/-) Cells: Sytravon; settings: phospho-rpS6 immunofluorescence/PI, 24 h; series mostly up to 38.3 µM; further: nearly all actives have a fitted effect of over 50% in size
Procedure, shortened: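 Compounds act on Tsc2-/-, p53-/- fibroblasts carrying an empty vector for 24 h before fixation and dual staining for phospho-S6 and DNA (propidium iodide). Values are percentages of cells above a rapamycin-defined pS6/PI threshold.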
Potency means the concentration at half of the fitted maximal effect; tags describe the fitted curve by direction and shape.

| Compound | Potency |
| --- | --- |
| FC(F)(F)c1cccc(Nc2nc3nonc3nc2Nc2ccc(Cl)cc2)c1 | inconclusive [falling, partial curve, poor fit] |
| Cc1ccccc1NC(=O)c1c(C)oc2ccc(O)c(CN3CCCCCC3)c12 | inconclusive [falling, single point] |
| Cc1cc(C)c2c(NC(=O)c3ccccc3Cl)c(C(=O)NCc3ccc(Cl)cc3)sc2n1 | inconclusive [falling, single point] |
| CCOC(=O)c1c(C)[nH]c(CCC(=O)NCc2ccc(OC)cc2OC)c1C | inconclusive [falling, partial curve, poor fit] |
| CC1=C(C(=O)N2CCCCC2)C(c2ccc(Cl)cc2)n2c(nc3ccccc32)N1 (centres undefined) | inconclusive [falling, full curve, poor fit] |
| CCN(CC)S(=O)(=O)c1ccc2c(c1)N(CC(=O)Nc1c(C)cccc1C)C(=O)C1CCCN21 (centres undefined) | inactive |
| COc1ccc(C(=O)NC(c2ccccc2Cl)c2cc(Cl)c3cccnc3c2O)cc1 (centres undefined) | inconclusive [falling, partial curve] |
| COC(=O)c1c(-c2ccc(Cl)cc2)noc1N1CCN(c2ccccc2OC)CC1 | inactive |
| Cc1ccc2occ(CC(=O)N(Cc3ccc(Cl)cc3)Cc3ccco3)c2c1 | inconclusive [falling, single point] |
| CCOc1ccc(NC(=O)CSc2c3c(nc4ccccc24)CCCC3)cc1 | inconclusive [falling, partial curve] |
| COc1ccc2cc(CNc3ccc(C)cc3)c(=O)n(CC(=O)Nc3ccc(C)cc3Cl)c2c1 | inactive |
| Cc1ccc2occ(CC(=O)Nc3ccc(S(=O)(=O)N4CCCC(C)C4)cc3)c2c1 (centres undefined) | inconclusive [falling, single point] |
| Cc1ccccc1Cn1nnc2c(=O)[nH]c(C3CCN(C(=O)c4ccccc4Cl)CC3)nc21 | inconclusive [falling, single point] |
| CCC1CN(C(=O)NCc2ccccc2)c2cc(C)ccc2O1 (centres undefined) | inconclusive [falling, partial curve, poor fit] |
| CC1CCN(C(=O)CN2c3ccc(C(C)C)cc3-c3ccccc3S2(=O)=O)CC1 | inconclusive [falling, single point] |
| CSc1ccc(C(=O)Nc2ccc(-c3nc4ccccc4s3)c(O)c2)cc1 | inactive |
| Cc1ccc(C)c(N2CCN(C(=O)c3ccc(Nc4nc5ccccc5n5nnnc45)cc3)CC2)c1 | inconclusive [falling, partial curve, poor fit] |
| CCC1CCc2nc3sc(C(=O)Nc4ccc(C)cc4C)c(N)c3cc2C1 (centres undefined) | inconclusive [falling, single point] |
| O=C(NCCc1csc(-c2cccc(F)c2)n1)c1ccccc1C(F)(F)F | inactive |
| CCOc1ccc(NC(=O)NCCN2CCN(c3cccc(C)c3C)CC2)cc1 | inconclusive [falling, single point] |
| COc1ccccc1CNC(=O)CCCn1c(=O)c2ccccc2n(Cc2ccc(F)cc2)c1=O | inconclusive [falling, single point] |
| CCn1cc(C(=O)OCC(=O)Nc2cc(OC)cc(OC)c2)c(=O)c2ccc(C)nc21 | inconclusive [activator, partial curve, poor fit] |

| Compound | Potency |
| --- | --- |
| Cc1cc(OCC(=O)Nc2c(C(=O)c3ccccc3)oc3ccccc23)cc(C)c1Cl | inactive |
| Cc1nn(C)c2c1c(-c1ccccc1)cc(=O)n2Cc1ccccc1C#N | inconclusive [falling, single point] |
| CN1C(=O)Cc2cc(S(=O)(=O)CCC(=O)Nc3ccc(Cl)c(C(F)(F)F)c3)ccc21 | inactive |
| COc1ccc2oc(-c3ccc(C)c(NC(=O)c4ccc5c(c4)OCCO5)c3)nc2c1 | inconclusive [falling, single point] |
| Cc1ccc(-n2c(=O)c3ccc(C(=O)NCc4ccco4)cc3n(Cc3ccc(Cl)cc3)c2=O)cc1 | active: 11.7 µM |
| COc1ccc(Oc2nc3c(C)cccn3c(=O)c2/C=C(\C#N)c2nc3ccccc3[nH]2)cc1 | active: 13.1 µM |
| COc1ccc(Nc2cc(C(=O)NCCCN(C)Cc3ccccc3)c3ccccc3n2)cc1 | inconclusive [falling, single point] |
| Cc1cccn2c(=O)cc(COc3cccc(NC(=O)COc4ccccc4)c3)nc12 | inconclusive [falling, full curve, poor fit] |
| CCOC(=O)c1cc(-c2ccccc2)n(-c2cccc(C(=O)N(C)c3ccc(C)cc3)c2)c1C | inconclusive [falling, partial curve, poor fit] |
| CCc1ccc(-c2nc(CSCC(=O)N3CCN(c4ccc(F)cc4)CC3)c(C)o2)cc1 | inactive |
| COc1cc(C2NC(=O)c3c(sc4c3CCN(C)C4)N2)ccc1OC(=O)c1ccccc1 (centres undefined) | inconclusive [falling, partial curve, poor fit] |
| COc1ccc(Nc2ncnc3onc(-c4ccc(Cl)cc4)c23)cc1Cl | inconclusive [falling, full curve, poor fit] |
| Cc1ccc(CSc2oc(-c3ccco3)nc2S(=O)(=O)c2ccc(Cl)cc2)cc1 | inconclusive [falling, single point] |
| CCCOc1ccc(-c2cccc(NS(=O)(=O)c3cccs3)c2)nn1 | inconclusive [falling, partial curve, poor fit] |
| COc1ccc(Cn2c(C(=O)O)c(CNCCc3cccs3)c3ccc(OC)cc32)cc1 | inconclusive [falling, single point] |
| Cc1cccc(-c2nnc(SCC(=O)NC3CCCCC3)o2)c1 | inactive |
| CCOc1ccccc1NC(=O)c1cc2ccc3cccnc3c2[nH]1 | inactive |
| COc1ccccc1C1C=C(c2ccc(Cl)cc2)Nc2nc(-c3ccc(Cl)cc3)nn21 (centres undefined) | active: 11.7 µM |
| Cc1ccccc1CSc1nc2cccnc2n1Cc1ccc(C(=O)NCCc2cccs2)cc1 | inactive |
| CCCCCn1c(=N)n(CC(O)COc2cccc(C)c2)c2ccccc21 (centres undefined) | active: 3.69 µM |
| CCCN(CCC)CC(O)Cn1cc(/C=C/C(=O)c2ccc(OCC)cc2)c2ccccc21 (centres undefined) | inconclusive [falling, single point] |
| Cc1ccc(-c2nn3c(=O)cc(CN4CCN(C(=O)Nc5cc(Cl)ccc5C)CC4)nc3s2)cc1 | inconclusive [falling, single point] |

| Compound | Potency |
| --- | --- |
| CC(C)COc1ccccc1C1CC(=O)Nc2cc3c(cc21)OCO3 (centres undefined) | inconclusive [falling, partial curve, poor fit] |
| CCOCCCn1c(=N)c(C(=O)NCC2CCCO2)cc2c(=O)n3cc(C)ccc3nc21 (centres undefined) | inconclusive [falling, single point] |
| CCOc1ccccc1CNC(=O)CN1C(=O)CCc2cc(S(=O)(=O)N3CCCCC3)ccc21 | inconclusive [activator, partial curve, poor fit] |
| CCc1ccc(S(=O)(=O)c2nnn(-c3cccc(C)c3)c2N)cc1 | inconclusive [falling, single point] |
| Cn1c(SCc2ccccc2F)nc2c([nH]c3ccccc32)c1=O | inactive |
| O=C(c1ccc2c(c1)N(Cc1cccc(Cl)c1)C(=O)c1ccccc1S2)N1CCOCC1 | inactive |
| CN1CCN(C(CNC(=O)C(=O)Nc2cccc(Cl)c2)c2ccc3c(c2)OCO3)CC1 (centres undefined) | active: 16.5 µM |
| COc1ccccc1NC(=O)C1CCC(CNS(=O)(=O)c2ccc3c(c2)CC(C)N3C(C)=O)CC1 (centres undefined) | inconclusive [falling, partial curve, poor fit] |
| CC(=O)c1cccc(NC(=O)c2cc3c(s2)-c2c(C)cccc2OC3)c1 | inactive |
| COc1ccc(NC(=O)C(NC(=O)/C=C\c2ccc3c(c2)OCO3)c2ccccc2)cc1 (centres undefined) | active: 10.4 µM |
| Cc1ccc(NC(=O)CSc2nc(=O)cc(N)n2CCc2ccccc2)cc1 | inconclusive [falling, partial curve, poor fit] |
| COc1ccc(C2c3c(-c4ccccc4O)n[nH]c3C(=O)N2CCc2ccccc2)cc1 (centres undefined) | inconclusive [falling, single point] |
| COc1ccc2c(c1)c(=O)c(C(=O)c1ccc(C)cc1)cn2Cc1ccccc1F | inconclusive [falling, single point] |
| COc1ccc(Cc2nnc(C(=O)NCCCN3CCN(c4ccccc4F)CC3)o2)cc1OC | inconclusive [falling, single point] |
| Cc1ccc(CN(Cc2ccco2)C(=O)c2cccc(C)c2)cc1 | inconclusive [falling, partial curve] |
| CCOC(=O)c1[nH]c2ccccc2c1NC(=O)c1ccccc1OC | inactive |
| CC(Oc1ccccc1)C(=O)Nc1nnc(S(=O)(=O)N2CCCCCC2)s1 (centres undefined) | inconclusive [falling, partial curve, poor fit] |
| Cc1ccc(Oc2nc3c(c(=O)n(Cc4ccccc4Cl)c(=O)n3C)n2C)cc1C | inconclusive [falling, single point] |
| COc1ccc(C)cc1S(=O)(=O)Nc1cccc(-c2ccc(N3CCC(C)CC3)nn2)c1 | inactive |
| Cc1cc(NC(=O)C2CCC(CNS(=O)(=O)c3ccc(Br)s3)CC2)ccc1Br (centres undefined) | inconclusive [falling, single point] |
